Source: US5659055A, “Cytoprotective fatty moiety compounds” (Virginia Commonwealth University, priority 1995, dated 1997)
Like-named read-outs stand apart in the source and are kept apart here.

Assays:
[1] = test system: Ca++-dependent PLA2s; conditions: 10 μM
[2] = test system: PLA2 activities derived from human platelets and human polymorphonuclear leucocytes (PMNs)
[3] = test system: PLA2 activities derived from human platelets and human polymorphonuclear leucocytes (PMNs); conditions: to approximately the same extent; cited from earlier work

SMILES	inhibition of in vitro PLA2 activity [3]	other results
CCCCC[C@H](O)/C=C/C1=C(CCCCCCC(=O)O)C(=O)CC1 [PGB1, prostaglandin B1]		PLA2 inhibitory activity [1]: not inhibitory; less inhibitory than the precursor arachidonic acid [2]: at least 2 orders of magnitude
CCCCC/C=C\C/C=C\C/C=C\C/C=C\CCCC(=O)O [arachidonic acid]	inhibited	
CCCCC/C=C\C/C=C\CCCCCCCC(=O)O [linoleic acid]	inhibited	
CCCCCCCC/C=C\CCCCCCCC(=O)O [oleic acid]	inhibited	
CCCCCC[C@@H](O)C/C=C\CCCCCCCC(=O)O [ricinoleic acid]		inhibition of in vitro PLA2 activity ([2]; 12-hydroxylation of oleic acid): eliminates the inhibitory activity
